# This is one part of the list. At the low end of the ranking, values are background and their order means little. Measured with an extract: partners may take part in the binding.
# Target: T1, HNF4alpha8 (COS-7 nuclear extract) (UniProt P41235-5)
# T1 sequence: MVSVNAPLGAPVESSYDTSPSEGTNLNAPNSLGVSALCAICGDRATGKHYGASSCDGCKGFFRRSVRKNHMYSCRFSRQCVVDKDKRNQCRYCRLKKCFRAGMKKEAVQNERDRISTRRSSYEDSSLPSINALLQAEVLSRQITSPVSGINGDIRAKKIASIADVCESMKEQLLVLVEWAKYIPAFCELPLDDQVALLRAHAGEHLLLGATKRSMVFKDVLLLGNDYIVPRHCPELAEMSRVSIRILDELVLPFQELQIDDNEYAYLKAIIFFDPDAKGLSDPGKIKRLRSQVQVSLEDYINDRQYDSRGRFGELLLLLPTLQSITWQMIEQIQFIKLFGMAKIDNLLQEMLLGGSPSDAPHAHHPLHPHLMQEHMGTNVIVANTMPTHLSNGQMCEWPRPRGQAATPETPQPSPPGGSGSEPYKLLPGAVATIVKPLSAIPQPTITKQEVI
# Test: protein-binding microarray
# Settings: COS-7 nuclear extract on double-stranded Agilent 4x180k PBM; binding buffer, salt, pH and temperature not given; high values mean tight binding; double strand, one strand shown; sequences stand for … in …GCCTAGGGAGATTAGAGTATCGGTCGA
row,Sequence,binding signal (log2 normalized intensity)
1,GGCAGCTTAAAAATGTTGACGCTATTTTAG,-0.968
2,CAAGGAGGCCCCAACATTCCAGAGAAGCAC,-1.33
3,ACACAGGCTCAACGGGTTAGACGCACGGCA,-1.33
4,ACCAAGGCTGCTTAACAAACACAAAAAGCG,-1.37
5,TTGGCAGCCACTGAGGCTCTGTGCCTTGTA,-1.03
6,GGGACAGATGTTTGGTTGAGCAAGCTGACA,-1.31
7,ATTTTACACCTTTTCTAGCTGAGTTGACCT,5.15
8,ACCAAAGGTCTTGTACAAAGGTCCTGTGGG,2.25
9,TTCCATATTCTATCAGTAGGTACGTTTGTG,2.32
10,AACCCGGGCGCACAAGATGCCGCCTCCCCG,-1.16
11,AGGTGAGCAGGCAGAGGTCAATGTCCACAC,6.45
12,TTTTCAGACCTTGCATTCTGAGGAACCAGA,-0.979
13,TGAGATAGGTATGATAACCCCCGTCACTGC,3.85
14,TCTTTGATTAGGAAAGGGAACTCCCTGACC,0.445
15,GGTCTAAACCTACTTAGATCAAGATTTTCA,-1.4
16,TTGCATCAGCTGGGCTCGGCGCTCCGCTTA,-1.37
17,GGCAATATCTCCCAGCTGGAGTCTTCTCTA,-1.21
18,ATTTAACCTGTATTAGGAAATTGTCAGTGC,0.524
19,GGATTTTGGAGCCAAACAGGTGTGGGTTCA,2.27
20,GGCAAGGCCTCGTGAAAGTTAACTTTGTAA,0.429
21,GTGCGCTGCCCCTCACTGCCCAGCCTCTCC,3.18
22,CTTAGCCAAAGAGAAGCCTAAGCAGGGCTA,-1.33
23,TATTTCAGCTTTGACGCCACCTGAAGGCAG,-1.41
24,TGTCATCTAGACCTGGACTTGAAGCCAGAC,0.544
25,CCACACGTCCCCTTCATGTTTTCACCAAGA,0.449

row,Sequence,binding signal (log2 normalized intensity)
1,AGCAATCATATATGCATTTGTCTCAGGTGG,1.26
2,ACAACAAAGGAAATGAAGCAACACTTTCTG,-1.33
3,TCAAATTACAAGGAGATATGCACTTGCCCT,2.75
4,GAGGTCTGGACCCTTGGCACTTTCACGATA,1.79
5,CTCTTTGGCCTGGCATTTGAGACTAGCCAC,-1.23
6,GCTGGGATGATTCCCTTATCTTCTCCCCTG,1.7
7,AGCCTTTGAGAAGCAGGAGCATGGGGGATG,-1.42
8,AGCCCCTTTTGGAATCCCCATCTCACCATA,3
9,AGAGGTCAGCCCACAGGTCAATCCAGGTTG,1.54
10,GAATGTAGACCTTTACCACCCTCACAGCTC,-0.135
11,TTCAGCGGTGCATTTTTTTCCACCCTCCCC,4.4
12,CACATTAACTGTGCTTCTGGGGTATAAAGG,1.67
13,GTTGTACCTTGACCCAAGAAATAAAAACAG,2.84
14,TGAGAGGCCAGTTTCTCCACAGCCTCACCA,-1.36
15,TCATTCTAACCCAAATGCAAATACCTATAG,1.26
16,AAAAAAAAAGGCAGTCCTTAGATCCACGGA,-1.39
17,AATCCTGCTCCTTCTGAATCTGTTCCACCT,0.808
18,GAGCAAAGGGCATGGAGGATTTAGATAACA,0.728
19,GGAGCCACTGAAGTGAGTTAATAAATACTG,-1.4
20,GCTGATTACAGGTTGCAGTAAAGAAACTGG,-1.21
21,CAGCCTGGAGGAGGGCGAGGCCGAGCCTCA,-1.12
22,TGAAGTCAAAGGAGGCATTCCTGCAATCAG,-1.31
23,TTGCCTAACTGCTGCATGTCATGACCTTCA,3.69
24,AGTGGAGAAACCTGACAGACTGGACTGCTG,-0.355
25,GTTCTCTAGAAACAGAGCCCAAGGCAAAGC,-1.27

row,Sequence,binding signal (log2 normalized intensity)
1,AGGTCTAAGTAAACTGTTCAAGACTTTCAG,-1.24
2,AAAAATGATGCCTGACTCAAGAAAGGATCT,-1.22
3,GCTAGCTGAGAGACTTTATCCGTATAACAA,-1.27
4,TTTCAACATCCTCTCAGGTCAAAGTTTGCC,3.91
5,GTGGGTTCTAGGTAATCACCCTCTCCACCC,1.93
6,TTTTTTTTAACGGTCTGCCCTCTTGTCCTT,4.14
7,GATCTGCAGGTAGGGGTGGGATGGGGAGCA,-1.27
8,CTGCTGGGAGTTGTAGTTTTTTGGGCCCCT,1.52
9,AGCAAAGGGCAGATAACAAGGGCATGTAAA,-1.13
10,CTCCAAGGTACTGTGAACTCCAGCTGGGCA,-0.0636
11,CCAACACAGAAGCCTTTTGTTCTTTGTGTG,1.47
12,CAAAGGTCAACAGCCAGCCTCAAAGATCAA,3.33
13,CAGATCCACATCGAAGGCCAAGGGATTTCA,-1.36
14,CAAAGTACACTTGGAGAAAAAAAACCATTG,-1.27
15,GTGGAGGGCGTGTAGGGAGTGGTTCCCACA,-1.11
16,AATGTCAGCCTGCTCAGGGAGAAGCAAATA,-1.3
17,CCCCTCCCCCACACAGACAAAGACAGAGAG,3.97
18,GAAGATGCAACAGTGACCCAAATATGGTCC,0.641
19,CCTTTAGAGGGCAAGGATCAGCCCCACACT,2.48
20,ATGTGGTCCTAAGACTAACCTTTGACCATC,8.15
21,AATTCCAGGATCCAAGATCCAACTCTGAAG,-1.21
22,TCTGCTATCTAAAAGCTTATCTGCACAATG,-1.27
23,TGTGCTGTGGCTGCCAAGACACAGAGAAAA,-1.42
24,TTTCTTGTCTGCCCCAGGGCTTTGCAGGGA,0.902
25,AATAGAGCTCTAAACCACCCAATCCTGCAG,1.57

row,Sequence,binding signal (log2 normalized intensity)
1,GGGGGCAGGGCTGGTCGGATGGCCGTGGGT,-0.311
2,CCAAAAGCTTTACTAAAACAGGGAGCAGGC,-1.38
3,TATCTTGATCAGAAAAGAAAGTGAGGAATG,-1.28
4,CTCACTGACTTCCATCAATGAAGCATATCA,-1.37
5,AACCTTTGCCCCCCTGGGCTCAAGCGATCC,6.03
6,AAAGTCCAACACAGAAGCCTTTTGTTCTTT,2.15
7,ACTTTGCTGTGTCCCACAGGGAAAGTATGG,0.585
8,AAGGAGCCTAACTTTGATAGGCACAATCAG,-1.34
9,AAAACTACACTCTTGCTAAACCCTCTAACA,-0.606
10,TGCCCGAGCTGCCCTTTATCTCCTCTCTTC,1.69
11,TATGACGGTGTATGCTCTCAGTGCTAACAC,-0.868
12,AAGGAGTGGAGGAAGGAAGAAGTGTTAAGG,-1.3
13,AACACACCATGTACAGAGAGCATTCTGCTG,-1.32
14,TTTCTGTATCTCTTCGCCTTGCTTATCTGG,1.38
15,TCTCTGAGCAGTCAAACTGGTTTCTTGTCT,0.977
16,CCACAGAATCGCCCCACCCTGCCTGGGTAG,1.23
17,ACGGCAAGCCATAGTTAACCCAGAAGACTG,-1.24
18,CCACTCCAGCCTCTCCACCAGGGGACCAGG,-1.48
19,TGTCCTTTGTCCCCCACCTGTGAAGATAAG,4.07
20,CCTTCACTCTGGGGCAATAACCCTAGACAC,-0.247
21,GTTCTCCTTTCTGCCCTTTGAAGCATGTGA,3.43
22,GGCAGTGACTGGACCACGATCAGCCAGCAG,-1.39
23,CCGTGGCTGGAACTCCTCCGGTCAAGATCA,0.0377
24,TAGAACCCAGGCACAGGTCCTACTCACACT,-1.18
25,GACTCTTGGACTCCCTGAAGAAACAGTCTT,0.338

row,Sequence,binding signal (log2 normalized intensity)
1,TCAGGGGTCAATGTGCACATTCGAAGTTTT,4.86
2,CACGTGCAAAGTACAAAGTACAGAGATGGC,3.78
3,GACCTTGTTTTCAATGACTACCTGTTACCC,1.81
4,GGAGTTTGTACTTTATCCTACAAGGGAGAT,2.77
5,GGCTGCAGAGGTTTCGCAAGGACGTGACCT,3.33
6,CTGGTCAGAAGAAACATGCGATACTTGACC,2.33
7,TTCAGAGGACTGCCCAGCTGCATCCTGTGC,-0.891
8,ACAACTTTTCCTCTAACCACTTTGAAATAG,0.27
9,GACGTACGCTCCCAGTATGAGCGGCGCTGA,-1.32
10,AGTCCAAAATCAGTCTCAGTGGGCTAAACA,-1.2
11,TCTGGTGGCACACAGAGGACGTCAGGCAGA,-1.24
12,CTTACTCTCTCCCTCCTCCTTTTTTTCCCC,2.82
13,AGAATTGGTCCTGGAACTCAAAGGTCAAAT,5.75
14,GAGCAGGAACCTTGTGGTGGTGAAAGTCAA,0.274
15,GGAGAGGATGGGGACAAAGGTCAAGAAAGC,6.33
16,TCCAGGAATGGAAACCCCTGTAAGTCCAAA,2.82
17,AAATCCAAAGGTCAACAGCCAGCCTCAAAG,4.08
18,CTGACTAGAGTGGAGTGAAGTAAGAGTAGC,-1.33
19,CCTTTGGCAATATCTCCCAGCTGGAGTCTT,-0.263
20,GTCAAAACCACCTATTCTGAAGATTGCTAG,-1.43
21,CAGTGGGAGACAGGCATTAACCCTTTAGTG,0.965
22,GGACTGCAGGGGGCCAAGGGATACCCTGAG,-1.25
23,ATATTTACTTATGGTTTGACCCTGCGATAA,3.75
24,AGAACCAAAGTCCTAGAGTCCCTATTTGCT,-1.27
25,CACTGGGGTCATGGAGCTGGAGGGCAAAGG,4.08

row,Sequence,binding signal (log2 normalized intensity)
1,GTGTAAACAAGTGAGCATGGCTGTGTTCCA,0.23
2,TTGTTCAATAAGCAATACATTGAACTTTGA,8.23
3,TCTGTGTAGAAATTGTGGCTTGTGTAGTTA,1.14
4,AGCAATTCAAATTCTTTGCCATGACCTTTG,6.24
5,TATTCCCAGGTTCCAAAGGTCACCCGTATT,7.3
6,GTGAACTGGAGCAAAGGTCACTCTTGCTAT,5.01
7,GGGAATGTCACAGGGGCCATGCAGGGCAGG,-1.31
8,TACTTTGCTTCCAAGTTATGCAGACCTTTG,2.66
9,ATCCCAAAGCTTTTTGATTGCTTATAGCTT,-1.26
10,CCACATGAATACACATAATGTGCTTATCAG,-1.15
11,ACAGCAAAGATGAATCATGTAACCAAAATG,-1.33
12,GGGTGCAGGGAGAAGGCAAAAATGCAGGCA,-1.26
13,GAGATCTAAGCGATAAGGAGGAAGGACACT,-1.31
14,TGGGAATGCCCTTTATACAGGCATGGAAGT,2.16
15,CAAAGGTCACGTTCCAGCTGCTTCAGGAGC,3.14
16,TTGATCTTTGTGTACAAAGCCATCAGCACT,0.622
17,CCGAGCAGGACGCTACCCGCTTGGCGTAGG,-1.37
18,TTCTGAGCAAATATTTGGGGTATGTGCTCA,0.925
19,AACCAAGATAGTGACGGAGGTGACCTTTGG,7.34
20,AAAGCCCTCAAATACTCTGAGTAAACACAG,-1.39

# Source: PMC10726135
